Assay results reported in the supplement of paper PMC3334620.
Over roughly 33,000 sequences, “E-score (-0.5 to 0.5)” has its median near -0.056; the highest 2% begin near 0.38. Some of the results follow.

What follows are sequences tested against Stb4 (UniProt P50104) (assay: PBM E-score (8-mer binding enrichment) (E-score (-0.5 to 0.5)); higher = stronger / more preferred TF binding; most listed sequences are background and not binding sites). Settings: protein concentration: 200 nM; construct: GST-DNA-binding domain.
In short: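 Yeast transcription factors carrying a GST tag, as full-length proteins or DNA-binding domains, were produced by PURExpress in vitro transcription/translation. About 100-200 nM protein was applied to universal all-10-mer Agilent arrays, double-stranded by primer extension on fresh or once-stripped slides. Bound protein was detected with fluorescent anti-GST, and scans were normalised with masliner. The Universal PBM Analysis Suite gave each ungapped eight-base word, pooled with its reverse complement, an E-score, a modified Wilcoxon-Mann-Whitney statistic.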

Row | Sequence | PBM E-score
1 | CATCAGCC | 0.0277
2 | ACCTCCTG | -0.279
3 | AAACTCGG | 0.419
4 | ACCCTGGG | -0.051
5 | CCAGCCAG | -0.073
6 | AGATATTA | 0.054
7 | TACCTTCA | -0.121
8 | AGACGCCA | -0.292
9 | GCGATCCA | -0.159
10 | ACCTGGGG | -0.33
11 | CCGCTTAA | 0.0858
12 | CGACGCCC | 0.203
13 | TAAGAGTA | -0.0965
14 | CTGCATTA | -0.0989
15 | CCAGAGGC | -0.289
16 | CATGATCA | -0.105
17 | AGGCTATA | -0.125
18 | GGACTGGA | -0.198
19 | ACGAACGG | 0.0948
20 | AATAGAGA | -0.145
21 | CAAGCGAG | 0.0404
22 | CATCCCCA | -0.122
23 | GCATAGAA | 0.0466
24 | CATTAATA | -0.0256
25 | ACGTCTCG | 0.115

Row | Sequence | PBM E-score
26 | GTGGAGTA | -0.222
27 | AACCGTGG | -0.0921
28 | ACCCAGTA | -0.24
29 | CCGCGCGC | 0.199
30 | CTGCTGCC | -0.157
31 | GGTAGACA | 0.0106
32 | ATCTCTTA | 0.059
33 | ATGTGCAC | -0.047
34 | AGAGTCCC | -0.0943
35 | AAGCAGCT | -0.0723
36 | CCTCCCGC | 0.133
37 | ACAGGACC | -0.0508
38 | AGCACGAG | -0.0473
39 | GGTATCAA | 0.031
40 | AGGGATCC | 0.163
41 | ATGTCGCG | 0.0443
42 | CGAGAACG | 0.206
43 | GCTGACCA | 0.0997
44 | GCGAGACC | -0.0423
45 | ACTTGTTC | -0.0214
46 | AATGAATT | -0.0341
47 | GAAGAACC | 0.115
48 | CAGGTACC | 0.055
49 | GAAGCGTC | -0.1
50 | CCTCCTCG | -0.0782

Row | Sequence | PBM E-score
51 | GAACGGGC | -0.0646
52 | AGTCTGCG | -0.292
53 | GTTGGGGA | -0.0878
54 | AGTGGGTA | 0.157
55 | CACATGGG | -0.101
56 | AGCATCCC | 0.0749
57 | AGACCGAT | 0.0617
58 | CACGCAGA | -0.154
59 | ACTACAAC | -0.0348
60 | TATGGGAA | -0.034
61 | AAAAACGA | -0.133
62 | TCTCCGCA | 0.147
63 | GCAAGCCC | -0.0367
64 | ATAGCAAA | -0.162
65 | CATGCGGC | 0.00229
66 | GTATGAGA | 0.0301
67 | ATGAGGAA | -0.0309
68 | AAGCGCGG | 0.03
69 | CCAAGCGA | -0.246
70 | CCCGACAC | 0.312
71 | ATCCCATA | 0.051
72 | CAAGTTGG | -0.17
73 | CATGGTCC | -0.0446
74 | ATACTGCG | -0.106
75 | AGTCACAA | -0.173

Row | Sequence | PBM E-score
76 | ATTTTTGC | 0.0861
77 | GCGTGAGA | -0.17
78 | AACCTTTC | 0.07
79 | ATTGTCGG | 0.357
80 | CGGAAAAG | 0.373
81 | AAGAGAGT | -0.168
82 | AACCAGCA | -0.169
83 | CCACAACC | -0.0387
84 | CTAGAGCC | -0.0985
85 | CACTCTCC | 0.0418
86 | CCTTAATA | -0.095
87 | ACTGGTGA | -0.226
88 | CCCCCCCA | -0.243
89 | GATGCATA | 0.025
90 | GGTACAGA | 0.0691
91 | CAAGATAG | -0.105
92 | CATCCTGC | -0.05
93 | GCGATTAC | -0.0382
94 | CCACTCAC | -0.181
95 | GACCGCGA | 0.0256
96 | GCCTGGTA | -0.265
97 | ACCACACG | -0.122
98 | CATGGAGG | -0.26
99 | CTAGCGCC | -0.224
100 | GGTCTAAC | 0.0261

Row | Sequence | PBM E-score
101 | GCCGAGAA | 0.406
102 | AGTTTCTA | -0.151
103 | CTTTCAGC | -0.0513
104 | CGGCTATA | 0.325
105 | AACCCCTT | -0.136
106 | TCGATTAA | -0.0064
107 | AGTGCGCC | -0.131
108 | CAAGCACC | -0.232
109 | CTTACCTA | -0.121
110 | GACTCGAC | 0.0122
111 | CTCCAAAA | -0.248
112 | ATTTGGTC | -0.00158
113 | ACATAACC | 0.137
114 | ACGCATCC | 0.147
115 | CAGCGTGG | -0.209
116 | CCTTTTGA | -0.0576
117 | AAGTGTGC | -0.0418
118 | CACTACCA | -0.0381
119 | GCTGTTAC | 0.0172
120 | AACCAACT | -0.112
121 | GTAGAGAC | -0.206
122 | GATTAGAA | -0.071
123 | CTTCAGAC | -0.227
124 | CTATGTTA | 0.122
125 | CATGTACA | -0.222

Row | Sequence | PBM E-score
126 | CCGTTTAC | 0.122
127 | GCGTACAA | -0.25
128 | CACGGCTC | 0.174
129 | ACTATGCG | 0.0389
130 | CTCGCATC | -0.0767
131 | ATGACCTC | -0.232
132 | AATGGTCT | -0.0529
133 | AGCATGAA | -0.15
134 | GGGCAAGA | 0.168
135 | ACTCAGCG | -0.149
136 | GAGTAGGA | -0.171
137 | CAACTAGA | -0.182
138 | AAGATATC | -0.0458
139 | CTATTTGC | -0.145
140 | CCTCGTTA | -0.245
141 | CGCACTTC | 0.09
142 | AAATTACA | 0.0466
143 | CTTATATA | -0.00875
144 | GCGGCTTA | 0.0783
145 | GTCAAATA | -0.106
146 | AACTGCGC | -0.135
147 | AGGGGAAA | -0.0331
148 | AATTGGCG | -0.155
149 | CCGTGACG | 0.0932
150 | AAGATTTG | -0.0201

Row | Sequence | PBM E-score
151 | CAACGTCC | -0.0242
152 | GATGATGA | 0.0102
153 | GTAGCCAC | -0.128
154 | ATTACTCC | 0.109
155 | AAGATTGT | -0.0946
156 | ACCGTTAA | -0.0758
157 | GAGTTTGA | -0.0453
158 | ACCTGGCC | 0.0173
159 | CATATACG | -0.0237
160 | ACGGAAAC | 0.375
161 | AACAAGGA | -0.0209
162 | CCTGGGCG | -0.232
163 | GGAGCTCC | 0.0821
164 | ATTTATCG | -0.00851
165 | CGAGTGCC | 0.0577
166 | AAGAGGCT | -0.271
167 | ACATCTTC | 0.0818
168 | GGTCGGCA | 0.353
169 | GATCGCGC | -0.0346
170 | TCCCTAGA | -0.218
171 | CGTTCATA | -0.204
172 | CAACCTGA | -0.299
